Data: PubChem BioAssay AID540317 (National Center for Advancing Translational Sciences (NCATS), 2011)
The campaign covered roughly 390,000 compounds. About 2,200 (0.56%) were called active. The inconclusive results got no clear call from the source; some entries with a clear call stand among them for comparison. Calls come from the whole dose curve; as a rule, active = well fitted inhibition curve with a large enough effect; inconclusive = small, poorly fitted or top-dose-only effect; inactive = no such curve, though single readings can be large or run the other way. Potencies beside an inconclusive call are fits to weak or partial responses and may not hold up.

Each compound was assayed against Chromobox protein homolog 1 (Homo sapiens) (UniProt P83916) (assay: HTS for Inhibitors of HP1-beta Chromodomain Interactions with Methylated Histone Tails). Settings: AlphaScreen HP1-beta / biotin-H3K9me3 peptide binding; series mostly up to 114 µM.
Summary of the method: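 AlphaScreen: HP1-beta (50 nM) preformed 30 min with biotin-H3(1-18)K9me3 peptide (50 nM) in PBS pH 7.4, 0.01% Tween-20. Compound added for 30 min at RT, then streptavidin donor/nickel chelate acceptor beads (10 ug/mL) for 30 min.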
Note: nearly all actives have a fitted effect of over 70% in size.
Potency is the fitted concentration of half-maximal effect; tags give direction and shape of the fitted curve.

Sequence of UniProt P83916 (P83916 whole entry, looked up): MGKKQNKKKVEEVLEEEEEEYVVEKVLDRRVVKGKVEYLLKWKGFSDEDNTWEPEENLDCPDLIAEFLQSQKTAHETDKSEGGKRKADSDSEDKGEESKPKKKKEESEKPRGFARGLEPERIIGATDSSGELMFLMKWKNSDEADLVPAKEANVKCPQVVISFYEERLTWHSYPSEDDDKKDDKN

SMILES	Potency
COc1ccc(N2CCN(C(=O)c3cc(-c4cc(OC)ccc4OC)nc4ccccc34)CC2)cc1	inconclusive: 35.5 µM [inhibitor, partial curve]
CC(C)C(OC(=O)C1=Cc2ccccc2OC1)C(=O)NCC1CCCO1 (centres undefined)	inconclusive: 31.6 µM [inhibitor, partial curve, poor fit]
O=C(Nc1cc(S(=O)(=O)N2CCOCC2)ccc1N1CCCCC1)c1ccc(Cl)cc1	inconclusive: 3.55 µM [inhibitor, full curve, poor fit]
Cc1ccccc1Nc1c(-c2ccco2)nc2c(C)cccn12	inconclusive: 20 µM [inhibitor, partial curve]
CCOC(=O)/C(C#N)=C/c1c(N2CCN(Cc3ccc4c(c3)OCO4)CC2)nc2c(C)cccn2c1=O	inconclusive: 35.5 µM [inhibitor, partial curve]
Cc1[nH]c2ccc(C(=O)OC(C)C(=O)N(C)c3ccccc3)cc2c1C (centres undefined)	inconclusive: 70.8 µM [inhibitor, partial curve]
O=C(Nc1ccc2c(c1)OCO2)c1cc2ncc(Br)cn2n1	inconclusive: 17.8 µM [inhibitor, full curve]
Cc1ccccc1NC(=O)Cn1c(=O)oc2cc(Br)ccc21	inactive
CCCn1nnnc1NC(=O)c1cccs1	inconclusive: 35.5 µM [inhibitor, single point]
Cc1ccc(CN2C(=O)N/C(=C\c3cccn3-c3cccc(C(=O)O)c3)C2=O)cc1	inconclusive: 56.2 µM [inhibitor, partial curve, poor fit]
OCCNCC(O)Cn1c2ccccc2c2ccccc21 (centres undefined)	inactive
CCN1C(=O)/C(=C2\SC(N3CCCCC3)=NC2=O)c2ccccc21	inconclusive: 31.6 µM [inhibitor, single point]
COc1ccccc1N1CCN(C(=O)CN(c2ccc(C)c(C)c2)S(C)(=O)=O)CC1	inactive
CCC(CC)c1nnc(NC(=O)c2ccc3c(c2)OCO3)s1	inconclusive: 44.7 µM [inhibitor, partial curve, poor fit]
Oc1ccccc1N=Cc1sc2ccccc2c1Cl	inconclusive: 35.5 µM [inhibitor, single point]
CC(C)(C)OC(=O)C[C@@H]1C/C=C\C[C@@H](CC(=O)N[C@H](CO)Cc2ccccc2)C(=O)NC[C@H](c2ccccc2)OC1=O	inactive
CCOC(=O)c1c(NC(=O)COc2cc(C)ccc2C(C)C)sc(C)c1C	inconclusive: 7.08 µM [inhibitor, full curve]
COc1ccc(N2CCN(CCNC(=O)Nc3ccc([N+](=O)[O-])cc3OC)CC2)cc1	inconclusive: 50.1 µM [inhibitor, partial curve]
COc1cccc(C(=O)NC(=S)Nc2ccccc2N2CCOCC2)c1	inconclusive: 35.5 µM [inhibitor, partial curve]
CCOC(=O)Cc1c(C)[nH]n(-c2ccccc2)c1=O	inactive
CCOc1ccccc1OCCOCCN1CCN(Cc2ccccc2)CC1	inconclusive: 14.1 µM [inhibitor, full curve, poor fit]
Cc1cc(C)c2nc(NNC(=O)c3cc(=O)c4ccccc4o3)sc2c1	inconclusive: 25.1 µM [inhibitor, partial curve]
O=C(c1ccccc1)c1ccc(O)c(O)c1O	inconclusive: 25.1 µM [inhibitor, full curve]

SMILES	Potency
OCCN(Cc1ccccc1)Cc1ccccc1Cl	inconclusive: 50.1 µM [inhibitor, partial curve]
COc1ccc(OC)c(C(=O)NC(CC(N)=O)c2ccc(N3CCN(c4ccc(F)cc4)CC3)c([N+](=O)[O-])c2)c1 (centres undefined)	inconclusive: 39.8 µM [inhibitor, single point]
O=C(NC(=S)Nc1ccccc1N1CCCCC1)c1cccs1	inconclusive: 44.7 µM [inhibitor, partial curve, poor fit]
Clc1cccc(OCCCN2CCCC2)c1Cl	inconclusive: 31.6 µM [inhibitor, partial curve]
CC(C)Sc1nnc([C@H](Cc2ccccc2)NC(=O)OC(C)(C)C)o1	inconclusive: 14.1 µM [inhibitor, partial curve, poor fit]
CC1CCc2nc3ncn(Cc4ccc(Cl)cc4)c(=O)c3cc2C1 (centres undefined)	inactive
C=CCc1cc(OC)ccc1OCCN1CC(C)OC(C)C1 (centres undefined)	inconclusive: 8.91 µM [inhibitor, partial curve, poor fit]
O=C(NC(=S)Nc1ccccc1N1CCCC1)c1cccs1	inconclusive: 14.1 µM [inhibitor, full curve, poor fit]
OC(COc1ccc2c(c1)OCO2)CN1CCc2ccccc2C1 (centres undefined)	inactive
COc1ccccc1NC(=S)NN=C(C)c1ccccn1	inconclusive: 39.8 µM [inhibitor, partial curve]
COc1ccc(Cn2nnnc2C(c2ccccn2)N2CCN(c3ccc(O)cc3)CC2)cc1 (centres undefined)	inconclusive: 50.1 µM [inhibitor, partial curve]
Cc1cc(C)cc(-n2c(SCC(=O)N3CCCC3)nc3c([nH]c4ccccc43)c2=O)c1	inactive
Cc1ccccc1CN1CCN(S(C)(=O)=O)CC1	inactive
Cn1c(=O)n(-c2ccc3c(c2)OCO3)c2nc(-c3ccc(Cl)cc3)nc(C(N)=O)c21	inactive
CC(C)CC1CC(C)(c2csc(NNC(=O)c3ccccc3)n2)OC1=O (centres undefined)	inactive
CCN(C/C=C/c1ccccc1OC)Cc1ccccc1	inconclusive: 39.8 µM [inhibitor, partial curve]
C=CCc1cc(OC)ccc1OCCCCn1cncn1	inconclusive: 14.1 µM [inhibitor, partial curve, poor fit]
CCOC(=O)C1ON2CCCCC2C1(O)C(F)(F)F (centres undefined)	inactive
O=C(CSc1ccsc1[N+](=O)[O-])Nc1cc(F)ccc1F	inconclusive: 35.5 µM [inhibitor, partial curve]
CCN(CC)c1ccc(-n2c(C)c(C(C)=O)c(C(C)=O)c2C)cc1	inconclusive: 20 µM [inhibitor, partial curve, poor fit]
CCOC(=O)c1scc(-c2ccccc2)c1S(=O)(=O)Nc1ccc(N(C)C)cc1	inconclusive: 17.8 µM [inhibitor, full curve]
Cc1cccc(NC(=O)CSc2nnc(-c3ccco3)c(-c3ccco3)n2)c1	inconclusive: 28.2 µM [inhibitor, full curve]
CS(=O)(=O)N1CCN(c2ccc([N+](=O)[O-])c(NCc3ccccc3)c2)CC1	inactive

SMILES	Potency
CC(=O)N1C(C(=O)O)Cc2c([nH]c3ccccc23)C1(C)C (centres undefined)	inactive
Clc1ccc(Cn2nc(-c3ccccc3)nc2-c2ccccc2)cc1	inconclusive: 39.8 µM [inhibitor, single point]
Cc1ccc(NC(=O)c2noc3c2CCC3)cc1C	active: 50.1 µM
Cc1ccc(CN2CCN(/N=C/c3cccnc3)CC2)cc1	inactive
COc1ccc(Cl)cc1NC(=O)CSC1=Nc2ccccc2C2=NC(CCC(=O)NCc3ccc(F)cc3)C(=O)N12 (centres undefined)	inactive
CN(CCCCCCN(C)Cc1ccccc1O)Cc1ccccc1O	inconclusive: 14.1 µM [inhibitor, partial curve, poor fit]
S=C(c1ccccc1)N1CCCc2ccccc21	inconclusive: 50.1 µM [inhibitor, partial curve, poor fit]
C/C(=N\NC(=O)c1cc(O)cc(O)c1)c1ccc(NC(=O)Cc2ccccc2)cc1	active: 31.6 µM
CCCOc1cccc(C2C(C(=O)c3cccs3)=C(O)C(=O)N2Cc2cccnc2)c1 (centres undefined)	inconclusive: 89.1 µM [inhibitor, single point]
O=C(NC1CCCN(c2ccc(C(F)(F)F)cn2)C1)c1ccnc(Cl)c1 (centres undefined)	inactive
O=C1/C(=C/c2ccc([N+](=O)[O-])cc2)C=C(c2ccccc2)N1c1ccc(O)cc1	inconclusive: 3.16 µM [inhibitor, full curve, poor fit]
COc1cc(OC)c(OC)cc1CCC(C)NCCC(c1ccccc1)c1ccccc1 (centres undefined)	inconclusive: 17.8 µM [inhibitor, full curve]
CCOC(=O)c1sc(=S)n(-c2ccc3c(c2)OCO3)c1N	inconclusive: 12.6 µM [inhibitor, partial curve, poor fit]
CCOC(=O)c1ccc(Cl)c(NC(=O)c2ccc(-c3ccccc3)cc2)c1	inactive
COCCNC(=O)CCCN1C(=O)CCn2nc(-c3cccn3C)cc21	inactive
Cc1ccc(CCNC(=O)c2ccc(CS(=O)(=O)c3ccc(Cl)cc3)o2)cc1	inactive
Cc1ccc(NC(=O)/C(C#N)=C/c2cc(C)n(-c3ccc(Br)cc3)c2C)cc1C	inactive
CCc1nnc(NC(=O)CSc2nc3ccc(OC)cc3[nH]2)s1	inactive
Cc1ccc(OCc2nnc(SCCN3CCOCC3)n2C)cc1	inconclusive: 39.8 µM [inhibitor, partial curve, poor fit]
CCN1C(=O)C2(c3ccccc31)c1c(oc3ccc(C)cc3c1=O)C(=O)N2CCCOC(C)C (centres undefined)	inactive
C[C@]12c3[nH]c4cc(-c5ccco5)ccc4c3CCN1C(=O)[C@@H](CC(=O)NCc1cccc(C(F)(F)F)c1)C[C@@H]2C(=O)N1CCCCC1	inconclusive: 31.6 µM [inhibitor, partial curve]
O=C1C(=O)C(c2ccc(O)cc2O)Oc2cc(O)cc(O)c21 (centres undefined)	inconclusive: 17.8 µM [inhibitor, single point]
C/C=C/c1ccc(OCCCCNCc2ccco2)c(OC)c1	inconclusive: 56.2 µM [inhibitor, partial curve, poor fit]
